Test results reported in the RNAGym collection of RNA variant scans (doi:10.7554/elife.90254).
The source gives no read counts; variants with many changes may rest on few reads.

B1: LINE1-mini (parent)
chain: GGCAGAGCUCAACACAGCGUGGCAAAGUGGCUGUGGCUAGACUGCC

Variants of: B1
Assay: self-cleavage, relative activity (ratio to wild type); higher = more cleavage; in vitro, sequencing; the parent is a self-cleaving ribozyme

Variant	self-cleavage
G5C C8G G33C G35U G36C	0
G5U A12C A16C C37G	0.04
G5C C8A G22C A26C G30C G44C	0.15
G5C G29C C42U G44U	0.06
G5C G36A C45G	0.01
G5A G19A C23A C37U	0.03
G5A G22C C37G C46G	0.02
G5A G35U G36A A39G	0.05
G5U A6U G36U	0.07
G5C A11U A24U G35U	0
G5C C31G U34C G35C C42G	0.01
G5C G19C U38A C45G	0
G5C C8U A25U C31A U34G	0.38
G5C U20G U43A C46A	0.11
G5C U9C C23G A24G	0.04
G5C C10A G19U	0.03
G5U A26G G40U G44C	0.02
G5C U9A C18A G22C A25G A39G	0.03
G5U A16C C31G G35U C45U	0
G5U C8U A16G	0.32
G5U C8G U34A	0.05
G5U C8A A16C C18U C42U C45G	0.01
G5C C8A G44C	0.1
G5U A12U C23A U28A A39U	0.04

Variant	self-cleavage
G5U A24C C37U	0.11
G5C U9C C10U C15A C18A G22U U28C	0.01
G5U A12U A26U C37U C46A	0.02
G5U A6C G40A	0.11
G5C G27C C42A	0.29
G5C C23U G40A	0.03
G5U A11G G33C	0.02
G5U C8A C10A G17U	0.09
G5C A11U A14C A25U C42G	0.01
G5A G17U U20G	0.09
G5A G35U A39U C42U	0.21
G5A G21A C23A	0.03
G5C U9G A24G G36A	0.03
G5A G7U C8A U9C C10U C37G C42U	0.02
G5U C8U C15G C31A G40U	0.11
G5C C13G A14U C42U	0.04
G5C U9G U20G A24C C42G	0.04
G5C G33U A41U	0.07
G5C U28G C37A	0.21
G5U C8A G30A C37A	0.24
G5U A25U U28A U34C G36C	0.02
G5C U28G G44A	0.02
G5C A6G G27U G33C C42A G44U	0.02
G5C C10U A39G	0.01

Variant	self-cleavage
G5C G17U G22U C23A U43A G44C	0.04
G5C C15U G21A U38G A41U	0.02
G5A U32G G33C C37A A39U	0.02
G5U A6C A24U G30A	0.17
G5C C13A U20G G29U	0.04
G5C U9A C10U U20A G36A	0.05
G5C C10A G17A	0.01
G5C C13U G22C C23A U34A	0.02
G5C U9A G22A A24U C42U	0.03
G5C C23U A26C G29U G36U C46U	0.03
G5U A11U G44C	0.01
G5C C13U G21U	0.02
G5C C10U A11G C46A	0.02
G5A U20C G40C	0.01
G5C G21C C37A	0.02
G5C U9A A39G	0.05
G5C C18G G21U A24G	0.03
G5A U9C G35A	0.03
G5C G7A A12U U28A	0.08
G5C C13G G17C A41U	0.01
G5U A16C A26U G30A	0.04
G5C G7C A14U C18G C31G A41U	0.03
G5C G44A C45A	0.02
G5C G17A G30A C31U	0.04

Variant	self-cleavage
G5U A6U A12U G19A G22A G29U G33A C42A	0.08
G5C G21A G44A	0.04
G5C C13A C45U	0.04
G5A G19A C42U C45U	2.83
G5C G7U C13U G17A	0.15
G5U A16U C18G C23G C46A	0.05
G5U A6C G36U	0.03
G5C U9A C13A A24G	0.07
G5U A25C G44A	0.09
G5U A14C A39U	0.06
G5A G22U C31A	0.09
G5C C8G G44U	0.21
G5C G22C G30C	0.06
G5A G21U G29U G36A C45A	0.12
G5A G33C C42U	0.27
G5C C18A A26G C46U	0.03
G5C A16G C18G	0.01
G5U A16C G27U C37U	0.07
G5C A11C A14C G17A A25C U38C	0.01
G5U A6U G27C U34C G36A	0.03
G5C G30A G33A G40A	0.05
G5U A6G G27C U34G G35A	0.03
G5U A11G C45A	0.04
G5A U20A G40U	0.04

Variant	self-cleavage
G5U C8A C10G G19U G27A	0.02
G5U A24C A41C C45A	0.03
G5C C15A G22U G30U A41C	0.05
G5C C10A G29U C31A	0
G5C G35U C37G C46U	0.02
G5U A26U G35U C42G	0.03
G5C C8U G17A G27A	0.1
G5C C45G C46A	0.12
G5C G21A G29U	0.05
G5A U32A A41U	0.08
G5C A11C C13U C18U C23A	0.01
G5A G19C C23A	0.02
G5A U9G G22U	0.1
G5U A11G A12G	0.02
G5U A26U U34C	0.07
G5C A6G A12G G30U	0.13
G5C U9C G29A C31A C45A	0.01
G5U A24C U32G	0.03
G5C G7U A16G C31A G40A	0.08
G5C A11G A16G G40A	0.02
G5C A39U U43A	0
G5C G21A C23G G35A	0.02
G5C G40U A41U	0.12
G5U A14C A26G G27A	0.03

Variant	self-cleavage
G5C A25U G35A	0.06
G5C G22A G44C	0.06
G5A G7U G17U A25G	0.3
G5C C37U G44C	0.03
G5C U9G A24U G44A	0.07
G5U A25U G40C C45G	0
G5C C10A G30C C31A G33C	0.02
G5C C15U G22C G27A G44A C45G	0.01
G5C U32G C45G	0.05
G5U A16U G27U	0.18
G5C A14G G19C G29U G36C	0.02
G5C C10G C15G G21U	0.01
G5A G7U A16U G27U G29U	0.12
G5A G21U G36A G44C	0.15
G5C A11U G21C A24G G27A C31A U38C	0.01
G5A U9A G21A G44A	0.06
G5U A6G G22U A25G G36U G44U	0.02
G5U A11U A24C G30A	0.02
G5C G7A U20C G36U U38A A41C	0.38
G5A G17C G19C A41G	0.03
G5A G33U C46A	0.05
G5C C10A G19C A41C	0.01
G5A G7U C23A C42A	0.06
G5U A14U C31A C45G	0.04

Variant	self-cleavage
G5C A11U G21A G27C	0
G5U A6C C10A U43C C46A	0.01
G5A U9G C23A C31A	0.03
G5A G35C A41U	0.08
G5A G19C C31A U32G G33C	0.03
G5U A24U C46U	0.06
G5A U9C C31G	0.02
G5C A12C U20A G22U G29A	0
G5U A14G G27C	0.01
G5C C13U U32C G35A	0.04
G5C C10U C37A	0.05
G5A U28A G35C C45U	0.01
G5C A16C A26G	0.05
G5U A16G G19C G33C U34C	0.01
G5U C8U C13A G19A G30U G35U A41U	0.13
G5U A6U U9G G30U C45U	0.12
G5C C18U G22A A24C	0.12
G5A G29A G35U C37U U38C	0.04
G5C C13G U28C G40A	0.11
G5C A12C U20C U32C	0.02
G5U C8A G21A	0.74
G5C G36U U43A	0.04
G5A G30A C31U	0.05
